Over roughly 33,000 sequences, “E-score (-0.5 to 0.5)” has its median near -0.012; the highest 2% begin near 0.29. The list shows a part of the results.
Target: T1, Ybr033w (UniProt P38073)
T1 sequence: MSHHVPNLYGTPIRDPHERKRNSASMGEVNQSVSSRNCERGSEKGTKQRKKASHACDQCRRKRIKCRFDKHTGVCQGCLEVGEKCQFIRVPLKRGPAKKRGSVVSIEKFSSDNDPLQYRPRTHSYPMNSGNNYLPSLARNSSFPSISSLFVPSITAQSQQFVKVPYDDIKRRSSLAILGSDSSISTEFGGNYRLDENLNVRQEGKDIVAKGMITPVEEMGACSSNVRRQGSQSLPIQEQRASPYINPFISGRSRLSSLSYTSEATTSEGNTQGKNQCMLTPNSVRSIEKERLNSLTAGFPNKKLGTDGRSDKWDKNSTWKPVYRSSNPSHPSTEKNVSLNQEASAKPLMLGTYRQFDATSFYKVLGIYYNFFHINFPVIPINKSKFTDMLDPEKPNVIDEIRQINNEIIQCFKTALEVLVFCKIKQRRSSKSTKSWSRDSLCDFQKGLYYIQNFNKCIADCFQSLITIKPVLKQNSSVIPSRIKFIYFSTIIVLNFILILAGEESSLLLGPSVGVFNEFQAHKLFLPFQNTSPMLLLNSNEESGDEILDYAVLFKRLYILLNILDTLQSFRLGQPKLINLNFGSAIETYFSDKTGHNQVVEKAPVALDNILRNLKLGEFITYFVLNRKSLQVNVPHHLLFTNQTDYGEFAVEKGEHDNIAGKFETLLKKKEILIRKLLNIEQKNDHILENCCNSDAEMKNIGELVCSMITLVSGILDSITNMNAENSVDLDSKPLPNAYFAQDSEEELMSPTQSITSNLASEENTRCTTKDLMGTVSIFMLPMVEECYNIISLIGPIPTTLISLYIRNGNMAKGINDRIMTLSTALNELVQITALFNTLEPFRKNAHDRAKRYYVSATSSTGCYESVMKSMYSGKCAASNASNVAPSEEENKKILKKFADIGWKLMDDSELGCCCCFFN
Assay: PBM E-score (8-mer binding enrichment) (E-score (-0.5 to 0.5)); higher = stronger / more preferred TF binding; most listed sequences are background and not binding sites
Details: protein concentration: 200 nM; construct: GST-full length
How it was run: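 Using PURExpress in vitro transcription/translation, GST-tagged yeast transcription factors were made in full-length or DNA-binding-domain form. These were applied at about 100-200 nM to double-stranded universal all-10-mer Agilent arrays, and bound protein was detected with fluorescent anti-GST. Scans were normalised with masliner before the Universal PBM Analysis Suite assigned E-scores to ungapped eight-base words pooled with their reverse complements.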

| Sequence | PBM E-score |
| --- | --- |
| AAGTGCCT | -0.246 |
| ACCCTGCG | -0.113 |
| ATGTGTAC | 0.0114 |
| AGCACTAC | -0.0548 |
| ATGAGCTG | 0.00037 |
| CAAGCAGA | 0.127 |
| ATAGCGCC | -0.0787 |
| ATTCGCCC | -0.175 |
| ATTAGCTA | 0.0575 |
| CAACCGGC | -0.0855 |
| AAACGGAA | 0.341 |
| GCGGAGGA | -0.249 |
| CCTATGGA | -0.0388 |
| CAACTAAC | 0.152 |
| CCAGACGC | -0.2 |
| ACGCGTGG | -0.279 |
| CCTGGTGC | -0.109 |
| AAAAAATT | 0.237 |
| AGTCCCAG | -0.276 |
| GGGCCGCA | -0.247 |
| CCGTTAAC | -0.11 |
| CTCCTTGA | -0.136 |
| AGTTGGAC | -0.0273 |
| ACGAGTAT | 0.066 |
| CACCAGGG | -0.279 |

| Sequence | PBM E-score |
| --- | --- |
| CATGTTGG | 0.0198 |
| GGCAATCA | -0.0475 |
| ACCAAGCT | 0.144 |
| AAATGAAG | 0.133 |
| ACAAACCA | -0.0763 |
| ACTGCTGA | -0.0957 |
| AACGCGCA | -0.0574 |
| AGATCAAA | 0.111 |
| CCTGTAGA | 0.00718 |
| GCCATCTA | -0.0362 |
| AGAATAAG | 0.14 |
| ATACCCTG | -0.0579 |
| ACTCCACG | -0.183 |
| ATAATAAC | 0.159 |
| CTGAGTAA | 0.183 |
| CTAAGCCA | -0.109 |
| CGTTGAAG | -0.0551 |
| TACGTGGA | 0.0301 |
| CCTTGTCC | -0.241 |
| AGTCAGCA | -0.112 |
| ACAGGGGA | -0.174 |
| AGCTTAAT | 0.193 |
| CTCTGCTC | -0.16 |
| CCTCTAGA | 0.0207 |
| GCGAGTAC | 0.0326 |

| Sequence | PBM E-score |
| --- | --- |
| ATACTTGC | 0.125 |
| CCGAGGCC | -0.37 |
| ATACTTCC | 0.204 |
| CAACTGTC | -0.0864 |
| ACGTGGGG | -0.214 |
| ATACGAGA | 0.0345 |
| GAATACTC | 0.0489 |
| GACTGGGC | -0.252 |
| GTCGATGA | -0.0835 |
| CGATCTGC | -0.249 |
| GCGAGGTA | -0.127 |
| AGGTCAGA | -0.123 |
| TTAGTCAA | 0.0843 |
| ATGCTCGG | -0.0455 |
| CTCCCGGC | -0.197 |
| AAGTGGAT | 0.046 |
| CGTTGTCA | -0.0639 |
| AAACGTCT | 0.0623 |
| AGGCTTTG | -0.215 |
| CCGTGACA | -0.219 |
| CGGGTGGC | -0.229 |
| GATCTGTA | 0.00583 |
| GTATCTGA | 0.0757 |
| AGGTCATG | -0.121 |
| CATTCCAG | 0.0779 |

| Sequence | PBM E-score |
| --- | --- |
| GGAACCCA | -0.306 |
| AGTGTGGC | -0.0881 |
| ATGTGGCC | -0.0631 |
| CATTGTTA | -0.015 |
| CTCTCTGA | -0.281 |
| CTAACCGA | -0.0372 |
| CATTATGG | -0.117 |
| CGCATGGA | -0.0379 |
| CCTTCGCG | -0.0347 |
| ATCTTGTC | 0.053 |
| GACTGGCA | -0.2 |
| CAATTGGG | -0.162 |
| AGCAATCG | 0.158 |
| CTGGGCGC | -0.222 |
| AGGATTGA | 0.254 |
| AGAACCAA | 0.197 |
| ACCCAATC | 0.0765 |
| CCCGCTCA | -0.208 |
| ATGGCCGG | -0.149 |
| AGAAGGAG | -0.202 |
| AACGCCAA | -0.0341 |
| GAGTGATA | 0.11 |
| AGGGAAAT | 0.00233 |
| CGGCAACC | -0.0886 |
| CAGTCTAC | -0.142 |

| Sequence | PBM E-score |
| --- | --- |
| ACTACTTC | 0.0442 |
| TGCTCTAA | -0.115 |
| GATATATA | 0.289 |
| CGCTATGC | -0.226 |
| AGGCGCAG | -0.224 |
| ACACCACC | -0.233 |
| GGCTTCTA | -0.0924 |
| ATTCTGTG | 0.105 |
| GCCATTCC | -0.122 |
| TAACATAA | 0.265 |
| GACCGCTA | -0.166 |
| GAATGCTA | -0.159 |
| GGTATAAA | 0.0927 |
| CCTTCATC | -0.0821 |
| ATTGGTTC | 0.232 |
| ATTGCGCA | 0.037 |
| ATACGGTC | -0.132 |
| GGACTCGA | -0.25 |
| TACCACGA | 0.0596 |
| CGAAGCTC | -0.147 |
| GATCGAGA | -0.0805 |
| CAAAACCG | 0.157 |
| AAGCGAGG | -0.193 |
| CGGAATGA | 0.134 |
| AGACAGAG | -0.156 |

| Sequence | PBM E-score |
| --- | --- |
| ATGCAGCC | -0.119 |
| CGACACAC | -0.0321 |
| CAAGCGTG | 0.0357 |
| TCTATACA | 0.0515 |
| GACTAAAC | -0.239 |
| ACCCCCCA | -0.391 |
| CTGTACTC | -0.144 |
| CGACTGAA | 0.0567 |
| ACAATGGA | 0.235 |
| ACGCTTCC | -0.215 |
| CGCTCCGA | 0.0417 |
| GGTGGCCA | -0.292 |
| GAAAGATA | 0.189 |
| AGTGGGCG | 0.0881 |
| CGTACTAA | 0.234 |
| AATCCGAC | 0.132 |
| GGTACCTA | -0.142 |
| CGATTAGA | 0.0655 |
| GTGGTGGA | -0.116 |
| CCCACAGA | -0.179 |
| CGGATAGA | 0.179 |
| ATCAGATA | -0.00105 |
| AACCTCGT | -0.0231 |
| ATCTTAGG | -0.155 |
| AGACTAGG | -0.216 |

| Sequence | PBM E-score |
| --- | --- |
| AGGAAGAA | 0.36 |
| AGCTTTAC | -0.0505 |
| CGTTGACA | -0.275 |
| ACGGGGAC | -0.275 |
| GAAAGAAC | 0.0327 |
| CAGAGACG | -0.0472 |
| AGTGAGAG | -0.013 |
| GCCCAGCA | -0.19 |
| ACCGCGGA | 0.0249 |
| ACTACCAA | 0.132 |
| AGATAACC | -0.0969 |
| GCCTGTAA | -0.0608 |
| ATATCTAC | 0.173 |
| GCGACTAA | 0.184 |
| CGGTTGTC | 0.0426 |
| ATCTTCCA | 0.249 |
| AGTTATAG | 0.0382 |
| ATTACCTA | 0.227 |
| AGCTCGAC | 0.0972 |
| CCCAGGCC | -0.324 |
| ATATAGCC | 0.178 |
| CGGGTAGC | -0.00686 |
